# Experimental data taken from PubChem BioAssay AID540317 (National Center for Advancing Translational Sciences (NCATS), 2011).
# The whole screen tested about 390,000 compounds, of which about 2,200 (0.56%) were called active. The inconclusive results got no clear call from the source; some entries with a clear call stand among them for comparison. The call rests on the fitted dose curve; in most records, active means well fitted inhibition curve with a large enough effect; inconclusive means small, poorly fitted or top-dose-only effect; inactive means no such curve, though single readings can be large or run the other way. Potencies beside an inconclusive call are fits to weak or partial responses and may not hold up.
# Biological target: Chromobox protein homolog 1 (Homo sapiens) (UniProt P83916)
# Sequence of UniProt P83916 (P83916 whole entry, looked up): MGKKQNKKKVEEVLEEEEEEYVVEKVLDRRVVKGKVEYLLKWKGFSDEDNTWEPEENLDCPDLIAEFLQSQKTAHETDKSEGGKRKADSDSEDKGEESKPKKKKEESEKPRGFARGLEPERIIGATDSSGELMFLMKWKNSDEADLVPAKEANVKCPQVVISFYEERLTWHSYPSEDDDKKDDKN
# Experiment: HTS for Inhibitors of HP1-beta Chromodomain Interactions with Methylated Histone Tails; further: nearly all actives have a fitted effect of over 70% in size
# Details: AlphaScreen HP1-beta / biotin-H3K9me3 peptide binding; series mostly up to 114 µM; activity change, negative = inhibition: at the top concentration
# Summary of the method: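 Compound inhibition of the preformed complex between 50 nM HP1-beta and 50 nM biotinylated H3K9me3 peptide was read by AlphaScreen. Buffer was PBS pH 7.4 with 0.01% Tween-20. Incubations ran 30 min at room temperature, with 10 ug/mL donor/acceptor beads.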
# Potency means the concentration at half of the fitted maximal effect; tags describe the fitted curve by direction and shape.
Compound,Potency,"activity change, negative = inhibition"
Cc1cc(/C=N/NC(=O)c2ccncc2)c(C)n1-c1cccc(C(F)(F)F)c1,"inconclusive: 79.4 µM [inhibitor, single point]",–
O=C(CS(=O)CC(=O)Nc1cccc2c1CCCC2)Nc1ccc(F)cc1 (stereo not drawn),–,inactive: 18.2%
O=C(Cn1nc(-c2ccco2)ccc1=O)Nc1ccc(Cl)c(Cl)c1,"inconclusive: 39.8 µM [inhibitor, partial curve, poor fit]",–
CN(C)CCCN(C(=O)c1ccc2c(c1)OCCO2)c1nc2ccccc2s1,–,inactive: 22.4% [at 57 µM]
COc1ccccc1CNc1ccc(-c2nc(-c3ccco3)no2)cc1[N+](=O)[O-],–,inactive: 55.1%
CN(C)S(=O)(=O)c1ccc2c(c1)nnn2CCNC(=O)Nc1ccc(Br)cc1,–,inactive: 39.3%
COCCCNCCCCSc1ccc(Cl)cc1,"inconclusive: 31.6 µM [inhibitor, partial curve]",–
CCc1cc(C(=O)c2ccccc2OC)c(N)s1,"inconclusive: 44.7 µM [inhibitor, partial curve]",–
CCC(CC)n1c(C)cc(=O)n1C(CC)CC,–,inactive: 39.9%
CCc1ccc(OCCn2ccnc2)cc1,"inconclusive: 39.8 µM [inhibitor, partial curve]",–
NC(=O)c1ccc(NCc2ccco2)c([N+](=O)[O-])c1,"inconclusive: 79.4 µM [inhibitor, single point]",–
Cc1c(C)n(Cc2ccccc2)c2ccc(C(=O)NCc3ccco3)cc12,–,inactive: 3.05%
COc1cc(C)ccc1Oc1nc(-c2ccccc2O)nc2ccccc12,"inconclusive: 35.5 µM [inhibitor, single point]",–
COc1ccc(CNCc2ccccc2)cc1COc1ccc(NC(C)=O)cc1,–,inactive: 20.9%
CCN(CC)C(=O)[C@H]1CC(CC(=O)NC/C=C(\C)CCC=C(C)C)C(=O)N2CCc3c([nH]c4ccc(OC)cc34)[C@]12C (stereo partly drawn),"inconclusive: 50.1 µM [inhibitor, partial curve]",–
CC(C)(C)c1ccc(C(=O)N2CCN(S(=O)(=O)c3ccc(Br)s3)CC2)cc1,–,inactive: 29.2%
COc1cc(/C=C/C(=O)c2ccc3c(c2)OCO3)cc(Cl)c1O,"inconclusive: 56.2 µM [inhibitor, single point]",–
CCOC(=O)C(C(=O)OCC)C(C(=O)OCC)N1CCOCC1 (stereo not drawn),"inconclusive: 44.7 µM [inhibitor, partial curve]",–
CN(C)c1cccc(C(=O)N(Cc2ccccc2)Cc2ccccc2)c1,"inconclusive: 20 µM [inhibitor, partial curve, poor fit]",–
O=C(Nc1ccc(N2CCOCC2)c(S(=O)(=O)Nc2ccc(Cl)cc2)c1)c1cnccn1,"inconclusive: 7.94 µM [inhibitor, full curve, poor fit]",–
Cc1ccc(C)c(NC(=O)NNC(=O)c2cc3occc3[nH]2)c1,–,inactive: 27.2%
CSc1ccc(C(=O)C2CCCN(C(=O)c3nn(C)c(=O)c4ccccc34)C2)cc1 (stereo not drawn),"inconclusive: 31.6 µM [inhibitor, full curve]",–
CCN(CC)c1ccc(/C=N/N2CCN(Cc3ccccc3Cl)CC2)c(O)c1,"inconclusive: 15.8 µM [inhibitor, full curve]",–
Cc1nc2nc(-c3ccc(Cl)cc3Cl)nn2c(C)c1CCC(=O)Nc1ccc(F)cc1,–,inactive: 25.2%
O=C(CSc1ncccn1)N/N=C/c1ccccc1[N+](=O)[O-],–,inactive: 33.9%

Compound,Potency,"activity change, negative = inhibition"
CC(=O)N1CC(C(=O)Nc2ccc3c(c2)OCO3)Oc2ccccc21 (stereo not drawn),"inconclusive: 70.8 µM [inhibitor, partial curve]",–
Cc1ccc(OCC(=O)Nc2ccccc2C(=O)OCc2cc(=O)n3ccsc3n2)cc1C,–,inactive: 10.3%
COc1ccc(CCNC(=O)CN(c2cc(C(F)(F)F)ccc2Cl)S(C)(=O)=O)cc1,–,inactive: 11%
CCN1CCN(C(=O)C2CCN(Cc3nc(-c4cccc(Cl)c4)oc3C)CC2)CC1,–,inactive: -2.24%
O=[N+]([O-])/C(C(=C(Cl)Cl)N1CCOCC1)=C1\NCCO1,–,inactive: 49%
O=C(Cn1ccc2cc(S(=O)(=O)N3CCCCC3)ccc21)NCCc1ccc(Cl)cc1,–,inactive: 13.2%
Brc1cccc(OCCN2CCOCC2)c1,"inconclusive: 14.1 µM [inhibitor, partial curve, poor fit]",–
CC(=O)c1ccc(OCC(O)CN(C)Cc2cccs2)cc1 (stereo not drawn),"inconclusive: 10 µM [inhibitor, full curve]",–
CC1=NOC(=O)/C1=C\c1ccc(-c2ccccc2Br)o1,"inconclusive: 12.6 µM [inhibitor, partial curve]",–
COc1ccccc1NC(=O)C(C)OC(=O)C1CCC(C(C)(C)C)CC1 (stereo not drawn),–,inactive: 90.9%
S=C(c1ccc(-c2cc(Cl)ccc2Cl)o1)N1CCOCC1,active: 17.8 µM,–
O=C(NCc1ccco1)c1cccc(Br)c1,–,inactive: 39.1%
CCn1ccc2cc(S(=O)(=O)N3CCC(C(=O)NCCOC)CC3)ccc21,–,inactive: 26.7% [at 57 µM]
O=C(O)c1c(C(=O)O)c(-c2ccc(F)cc2)n2c1CCC2,"inconclusive: 70.8 µM [inhibitor, partial curve, poor fit]",–
CC1=NN(c2ccccc2)C(=O)C1N=Nc1ccccc1 (stereo not drawn),"inconclusive: 5.62 µM [inhibitor, full curve]",–
O=S(=O)(c1ccc(-c2cc(C(F)(F)F)on2)s1)N1CCN(c2cccc(Cl)c2)CC1,–,inactive: 37.9%
COc1ccccc1C(=O)NCC(c1ccco1)N1CCc2ccccc21 (stereo not drawn),–,inactive: 4.65%
CC1=N/C(=C/c2ccc([N+](=O)[O-])cc2)C(=O)N1c1ccc(Cl)cc1Cl,"inconclusive: 11.2 µM [inhibitor, full curve]",–
COc1ccc(C(CC(=O)Nc2ccc(OC)c(OC)c2)N2Cc3ccccc3C2=O)cc1 (stereo not drawn),–,inactive: 12.1%
COc1cc(OC)c2c(C)cc(=O)oc2c1C(CCN1CCN(c2ccccc2)CC1)c1ccc2c(c1)OCO2 (stereo not drawn),"inconclusive: 14.1 µM [inhibitor, partial curve, poor fit]",–
Clc1ccc(OCCn2ccnc2)c(Cl)c1,"inconclusive: 39.8 µM [inhibitor, partial curve]",–
Cc1cccc(N2CCN(c3ccc(N4C(=O)CCCC4=O)cc3[N+](=O)[O-])CC2)c1C,–,inactive: -7.09%
Cc1ccc(C)c(N2CCN(C(=O)c3cccn3-c3nnc(N4CCCCC4)s3)CC2)c1,"inconclusive: 79.4 µM [inhibitor, single point]",–
O=[N+]([O-])c1cccc(/C=N/N2CCN(Cc3ccc(Cl)cc3)CC2)c1,"inconclusive: 39.8 µM [inhibitor, partial curve]",–
O=C1S/C(=C\c2ccc(O)c([N+](=O)[O-])c2)C(=O)N1c1ccccc1Cl,"inconclusive: 35.5 µM [inhibitor, partial curve]",–

Compound,Potency,"activity change, negative = inhibition"
CCCCN(CC)CCNC(=O)Cn1c(=O)c2cccn2c2cccnc21,"inconclusive: 6.31 µM [inhibitor, single point]",–
CN(Cc1ccccc1)C(=O)Cn1ncc2c3ccccc3n(Cc3cccc(Cl)c3)c2c1=O,–,inactive: -1.71%
CCOc1ccc(/C=C2/SC(=S)N(C(C(=O)O)c3ccccc3)C2=O)cc1OCC (stereo not drawn),"inconclusive: 50.1 µM [inhibitor, partial curve, poor fit]",–
CCn1ccc2cc(S(=O)(=O)N3CCC(C(=O)NCCc4ccc(SC)cc4)CC3)ccc21,–,inactive: 7.85% [at 57 µM]
CC1Cc2ccccc2N1C(=O)c1ccc(N2CCCCC2)c([N+](=O)[O-])c1 (stereo not drawn),"inconclusive: 50.1 µM [inhibitor, partial curve]",–
Cc1ccc(NC(=O)CN(C)C(=O)COc2ncnc3ccc(Br)cc23)cc1,–,inactive: 40.9%
COc1ccc(CCNC(=O)CNCC2CCCCC2)cc1OC,"inconclusive: 44.7 µM [inhibitor, partial curve]",–
C=CCN1C=C/C(=C\C=C(C#N)C#N)c2ccccc21,"inconclusive: 15.8 µM [inhibitor, full curve, poor fit]",–
COc1ccc(/C=C(/C#N)c2cccnc2)cc1OC,"inconclusive: 28.2 µM [inhibitor, single point]",–
CN(CCOc1ccccc1)C(=O)c1ccc(N2CCCC2)c([N+](=O)[O-])c1,"inconclusive: 56.2 µM [inhibitor, partial curve, poor fit]",–
FC(F)(F)c1cnc(NNC(=S)Nc2ccccc2Cl)c(Cl)c1,–,inactive: -18.6%
O=C(c1cc2ccccc2cc1O)N1CCN(c2ccccn2)CC1,–,inactive: -23.2%
O=C(CN1CCN(c2cccc(C(F)(F)F)c2)CC1)NCc1ccccc1,–,inactive: 21.1%
Cc1ccc2oc(C(=O)N(Cc3ccc(N(C)C)cc3)C3CCS(=O)(=O)C3)c(C)c2c1 (stereo not drawn),"inconclusive: 25.1 µM [inhibitor, full curve]",–
Cc1ccc(-c2nnc(Nc3ccccc3)c3ccccc23)cc1S(=O)(=O)NCc1nc2ccccc2[nH]1,–,inactive: 42.8%
CN(C)CCCCOc1ccc(Br)cc1Cl,"inconclusive: 35.5 µM [inhibitor, partial curve]",–
Cc1cccc(N=Nc2cnc(N)s2)c1,"inconclusive: 31.6 µM [inhibitor, partial curve]",–
COc1ccc(CNCc2cc(C)c(OC)cc2C)c(OC)c1,"inconclusive: 39.8 µM [inhibitor, single point]",–
CC(=O)c1c(C)oc2c1cc(O)c1ccccc12,–,inactive: 21.6%
CCC(NC(=O)Nc1cc(OC)ccc1OC)c1c(-n2cccc2)sc2c1CCN(CC)C2 (stereo not drawn),"inconclusive: 50.1 µM [inhibitor, partial curve, poor fit]",–
Cc1cc(S(=O)(=O)N2CCN(c3ccccc3F)CC2)ccc1-n1cnnn1,–,inactive: 26.8%
COc1ccc(C2(c3ccc(O)cc3O)CC(c3ccccc3Cl)NC(=S)N2)cc1 (stereo not drawn),"inconclusive: 35.5 µM [inhibitor, partial curve]",–
CC(C)c1ccc(N(C(=O)c2snc(C(N)=O)c2N)C(C(=O)NCC2CCCO2)c2ccc(N(C)C)cc2)cc1 (stereo not drawn),"inconclusive: 50.1 µM [inhibitor, partial curve]",–
